# Laboratory results reported in PubChem BioAssay AID488969 (Vanderbilt High Throughput Screening Facility, 2010).
# Over roughly 110,000 compounds, “z-score” has its median near -0.1; the highest 2% begin near 2. Some of the results follow.
# Target: Metabotropic glutamate receptor 8 (Rattus norvegicus) (UniProt P70579)
# Assay: mGluR8 Gi/Go-coupled signaling modulation – cell-based, rat, thallium flux, HTS, primary screen (AID 488969)
# Settings: HEK293 rat mGluR8, GIRK (G protein-gated inwardly rectifying potassium channel) thallium flux, FluoZin2; at 10 µM; stronger effect = higher value; submaximal glutamate (EC20) added with thallium
# UniProt P70579, sequence (P70579 whole entry, looked up): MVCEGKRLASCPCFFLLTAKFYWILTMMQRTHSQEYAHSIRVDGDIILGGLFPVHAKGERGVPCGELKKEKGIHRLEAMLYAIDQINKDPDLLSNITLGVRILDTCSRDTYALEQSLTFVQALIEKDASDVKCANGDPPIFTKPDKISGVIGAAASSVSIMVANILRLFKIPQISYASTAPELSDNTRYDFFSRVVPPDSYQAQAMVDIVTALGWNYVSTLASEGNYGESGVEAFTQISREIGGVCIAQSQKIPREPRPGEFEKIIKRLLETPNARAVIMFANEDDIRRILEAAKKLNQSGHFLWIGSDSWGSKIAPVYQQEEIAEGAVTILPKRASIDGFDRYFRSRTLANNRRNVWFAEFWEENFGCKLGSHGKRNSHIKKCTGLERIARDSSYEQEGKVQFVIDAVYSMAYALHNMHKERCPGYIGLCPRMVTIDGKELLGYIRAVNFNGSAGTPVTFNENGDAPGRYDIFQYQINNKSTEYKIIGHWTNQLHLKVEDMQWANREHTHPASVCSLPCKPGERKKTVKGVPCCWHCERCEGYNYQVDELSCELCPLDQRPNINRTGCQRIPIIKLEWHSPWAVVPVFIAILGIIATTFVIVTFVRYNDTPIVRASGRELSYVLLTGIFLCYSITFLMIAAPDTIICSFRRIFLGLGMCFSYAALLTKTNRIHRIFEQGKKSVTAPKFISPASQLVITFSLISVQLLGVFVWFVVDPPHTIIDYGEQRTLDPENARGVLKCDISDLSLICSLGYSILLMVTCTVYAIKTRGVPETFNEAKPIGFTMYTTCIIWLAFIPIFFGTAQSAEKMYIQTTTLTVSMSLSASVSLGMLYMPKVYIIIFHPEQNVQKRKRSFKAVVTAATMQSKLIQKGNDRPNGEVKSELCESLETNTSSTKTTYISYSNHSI
row,Structure (SMILES),z-score
1,CCCC(=O)NC(=S)Nc1cccc(NC(=O)c2ccccc2Cl)c1,-0.103
2,CCOC(=O)c1sc(NC(=O)CN(CC)CC)c(C(=O)OCC)c1C,-0.132
3,O=C(/C=C/c1ccco1)NC(=S)Nc1ccc(N2CCOCC2)c(Cl)c1,0.0338
4,CCOc1ccccc1NC(=O)CC(O)(C(F)(F)F)C(F)(F)F,0.305
5,COc1ccc(-c2c(C#N)c(SCC(=O)Nc3ccccc3)nc3c2CCCC3)cc1,-0.0816
6,Cc1ccc(-n2c(N)c(C(=O)N3CCOCC3)sc2=S)cc1,0.347
7,O=c1cc(N2CCCCC2)c(-c2ccccc2)nn1Cc1ccc(Cl)cc1,0.0175
8,Cc1ccnn1CC(=O)N/N=C/c1ccc2c(c1)OCO2,-0.38
9,Cn1c(=O)c2c(-c3cccc(F)c3)c3c(nc2n(C)c1=O)-c1ccccc1C3O (stereo unspecified),-1.52
10,CCC(CC)NC(=O)CO/N=C/c1ccccc1OC(F)F,-0.0639
11,CCOC(=O)N1CCN(C(=O)Nc2ccc(Cl)cc2)CC1,-0.0107
12,CCOc1ccc(Cn2nnc(C(=O)NCCc3ccc(Cl)cc3)c2N)cc1,-0.226
13,COc1cc2c(cc1OC)C(c1cc3cc4c(cc3[nH]c1=O)OCO4)N(C(=O)C(C)C)CC2 (stereo unspecified),-0.0568
14,Cc1c(C(=O)O)nn(-c2ccccc2)c(=O)c1C#N,0.0941
15,CC(=O)N1N=C(c2ccccc2)CC1c1cn(C)c2ccccc12 (stereo unspecified),-1.54
16,Cc1ccc(S(=O)(=O)N=S(CC2CC2(Cl)Cl)CC2CC2(Cl)Cl)cc1 (stereo unspecified),-0.364

row,Structure (SMILES),z-score
1,O=C(N/N=C/c1cccc(OC(=O)N2CCOCC2)c1)c1cccs1,-0.0322
2,c1ccc2c(c1)OCC(CNc1ncnc3sccc13)O2 (stereo unspecified),-0.346
3,COc1ccc2nc(NC(=O)Cc3cccs3)sc2c1,-0.144
4,Cc1cc(C(C)(C)C)oc1C(=O)N(CC(=O)NC1CCCC1)Cc1ccccc1Cl,-0.671
5,CC(C)C(NC(=O)C1CCCCC1)C(=O)NC1CCN(Cc2ccccc2)CC1 (stereo unspecified),0.129
6,O=C(COc1ccc(Br)cc1CO)Nc1ccccc1F,-0.0395
7,Cc1ccc(NC(=O)C2C3CCCC2C3c2ccccc2)cc1C (stereo unspecified),-0.232
8,COc1ccc(Oc2nnc(C)c3ccccc23)cc1,-0.35
9,CC1CCCN(C(=O)c2ccc(CNc3c(N4CCCCC4)c(=O)c3=O)cc2)C1 (stereo unspecified),-0.544
10,S=c1[nH]nc(-c2ccc3ccccc3n2)n1-c1cc(Cl)cc(Cl)c1,2.18
11,O=C1/C(=C\c2cccnc2)Sc2ccccc21,-0.757
12,COc1ccc(NC(=O)CN(c2ccc(C)cc2)S(=O)(=O)c2c(C)nn(C)c2C)cc1OC,-0.248
13,FC(F)(F)c1n[nH]c(=S)n1/N=C/c1ccco1,-0.0482
14,CC1(C)C(c2ccc(Cl)cc2)=[N+]([O-])C2(CCCC/C2=N\O)N1O (stereo unspecified),0.275
15,CCOC(=O)C1=C(Cc2ccc(C)cc2)C(=O)c2ccccc2C1=O,0.585
